Laboratory results from PubChem BioAssay AID1745853 (National Center for Advancing Translational Sciences (NCATS), 2022).
Values joined by “and” are separate entries in the source; they are usually repeats but may differ in a detail not shown here. Identical values can stand only once. The list shows a part of the results. Shown are side measurements of this screen, not its main read-out; they come without a call.

What was measured:
Assay in all cases: Primary Screen for Target Class Profiling of Small Molecule Inhibitors of Methyltransferases
[1] = molecular target: Glycine N-methyltransferase (Homo sapiens) (UniProt Q14749); conditions: purified enzyme, MTase-Glo SAH luminescence; measured here: GNMT inhibition; at 40 µM; stronger effect = lower value
In short: (§1)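 Each enzyme was reacted with SAM and its substrate, with compounds tested once at 40 uM; SAH formed was read by MTase-Glo luminescence.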

[2] = molecular target: Guanidinoacetate N-methyltransferase (Homo sapiens) (UniProt Q14353); conditions: purified enzyme, MTase-Glo SAH luminescence; measured here: GAMT inhibition; at 40 µM; stronger effect = lower value
In short: as §1

[3] = molecular target: Histamine N-methyltransferase (Homo sapiens) (UniProt P50135); conditions: purified enzyme, MTase-Glo SAH luminescence; measured here: HNMT inhibition; at 40 µM; stronger effect = lower value
In short: as §1

[4] = molecular target: Nicotinamide N-methyltransferase (Homo sapiens) (UniProt P40261); conditions: purified enzyme, MTase-Glo SAH luminescence; measured here: NNMT inhibition; at 40 µM; stronger effect = lower value
In short: as §1

[5] = molecular target: Phenylethanolamine N-methyltransferase (Homo sapiens) (UniProt P11086); conditions: purified enzyme, MTase-Glo SAH luminescence; measured here: PNMT inhibition; at 40 µM; stronger effect = lower value
In short: as §1
% is set by controls: 0 for no effect and ±100 for the full control effect.

Row | Compound | activity change, negative = inhibition [1] | activity change, negative = inhibition [2] | activity change, negative = inhibition [3] | activity change, negative = inhibition [4] | activity change, negative = inhibition [5]
1 | CC(C)NC(=O)NC[C@H]1O[C@@H](CO)[C@@H](O)[C@H]1N(C)CCN(C)C | -1.6% | -4.01% | 0.69% | -8.83% | -3.88%
2 | O=C(CCc1nnc2n(CCc3ccccc3)c(=O)c3ccccc3n12)N1CCN(C2CCCCC2)CC1 | -12.8% | 0.903% | -34.7% | -21.5% | -8%
3 | O=C(CCn1ccc2cc(S(=O)(=O)N3CCCCC3)ccc21)NC1CCCC1 | -2.42% | 0.665% | -2.75% | -4.56% | 0.459%
4 | C=CCNc1ncnc2ccc(Br)cc12 | -10.2% | 5.77% | -2.14% | -5.3% | 7.58%
5 | CCc1cc2c(cc3n2CC(C)(C(=O)NC2CCC(C)CC2)N(CCN2CCOCC2)C3=O)s1 (configuration not stated) | 3.88% | 3.01% | 1.41% | -7.12% | 0.824%
6 | Cc1cn2nnc(C(=O)NCc3ccc(C(C)C)cc3)c2c(=O)[nH]1 | -11.8% | -8.81% | -7.24% | -20.3% | -1.55%
7 | O=S(=O)(c1ccc(F)cc1)N1CCC(c2noc(C3CC3)n2)C1 (configuration not stated) | -0.197% | -0.543% | 3.13% | -6.02% | 1.51%
8 | COc1ccccc1CNC(=O)C1(C)Cn2c(cc3ccccc32)C(=O)N1Cc1ccccc1OC (configuration not stated) | 2.21% | 4.83% | 1.66% | 4.78% | -1.13%
9 | O=C(Cc1ccccn1)N1CCC2(CC1)CCN(Cc1cccs1)c1ccccc1O2 | -12.6% | -12.8% | -12.3% | -18.6% | -19.7%
10 | Cc1ccc(S(=O)(=O)c2nnn3c2nc(NCc2ccccc2)c2ccccc23)cc1C | 0.791% | 7.06% | 8.37% | 6.06% | 2.27%
11 | CCOC(CN1CCN(CC(C)C(=O)c2ccccc2)CC1)c1ccccc1 (configuration not stated) | -1.33% | -12.9% | -9.47% | -20.4% | -14.7%
12 | CC(=O)Nc1c2n(c3ccc(F)cc13)CC(C)(C(=O)NC1CCCC1)N(CCCOC(C)C)C2=O (configuration not stated) | 3.48% | 2.34% | 5.88% | 2.98% | -2.85%
13 | CCCCN1C(=O)c2cc(C(=O)NCc3ccc(OCC)cc3)nn2CC1(C)C(=O)NC1CCCC1 (configuration not stated) | 2.51% | 5.18% | -2.5% | -1.55% | 0.561%
14 | COCCN1C(=O)CSc2c(c(C)nn2-c2ccccc2)C1C(=O)NCc1ccccc1OC (configuration not stated) | -1.26% | 2.25% | 6.13% | 1.22% | 3.4%
15 | CC1CCCC(NC(=O)C2(C)Cn3c(ccc3-c3ccco3)C(=O)N2Cc2ccccn2)C1C (configuration not stated) | -0.629% | 1.21% | 9.36% | -2.42% | 3.15%
16 | CCC(C)NC(=O)c1ccc2c(=O)n(C(C)C)c3nn(Cc4cccc(OC)c4)c(=O)n3c2c1 (configuration not stated) | -5.51% | -4.41% | 7.31% | -9.63% | -4.12%
17 | CC1CCN(S(=O)(=O)c2ccc3c(ccn3CCC(=O)N3CCCCC3)c2)CC1 | 2.52% | 4.24% | 6.95% | 0.799% | 3.06%
18 | C[C@H]1[C@H](O)O[C@@H]2O[C@@]3(C)CC[C@H]4[C@H](C)CC[C@@H]1[C@@]24OO3 | 0.405% | 11.3% | -3.27% | -13.8% | -5.7%
19 | CCCSCCCN1C(=O)c2cc3occc3n2CC1(C)C(=O)NC1CCCCCC1 (configuration not stated) | -1.35% | 2.85% | 0.738% | 0.743% | -4.91%
20 | Cc1cc(F)c(C(=O)Nc2cccc(-c3nncn3C(C)C)n2)cc1-n1cnc(C2CC2)c1 | -12.6% | -0.996% | -39.6% | -29.3% | -13%

Row | Compound | activity change, negative = inhibition [1] | activity change, negative = inhibition [2] | activity change, negative = inhibition [3] | activity change, negative = inhibition [4] | activity change, negative = inhibition [5]
21 | O=C(Cn1nc2n(Cc3ccccc3)c(=O)c3ccccc3n2c1=O)c1ccc(Br)cc1 | 0.571% | 4.95% | 5.66% | -2.02% | 0.904%
22 | CCc1ccc(NC(=O)Cn2nc3n(CCC(C)C)c(=O)c4ccccc4n3c2=O)cc1 | -4.05% | -1.34% | -0.143% | -9.48% | -4.48%
23 | COc1cccc(NCCC2(c3ccccc3)CC(C)(C)OC(C)(C)C2)c1 | -0.048% | -5.99% | 1.81% | -19.1% | -11.6%
24 | CC(C)C1=NOC2(CCN(C(=O)C3CCCC3)CC2)C1 | -1.51% | -4.42% | 0.981% | -7.37% | -3.28%
25 | Cc1ccc(CN2C(=O)c3cc(-c4ccco4)nn3CC2(C)C(=O)NC2CCC(C)CC2)cc1 (configuration not stated) | -7.28% | 0.642% | -2.77% | -6.57% | -7.79%
26 | O=C(Nc1ccc(CN2CCOCC2)cc1)c1ccc(-c2cccc(Cl)c2)o1 | -12.5% | 5.96% | -0.955% | -8.19% | 0.394%
27 | Cc1ccc(Cn2nc3n(C)c(=O)c4ccc(C(=O)NC5CCCCC5)cc4n3c2=O)cc1 | 7.32% | 0% | 10.2% | 4.28% | 6.68%
28 | CCC1(N2CCN(S(=O)(=O)c3cc(F)ccc3C)CC2)CCN(C(=O)NC)C1 (configuration not stated) | -1.21% | 0.543% | -1.44% | -1.34% | -3.87%
29 | CO[C@@H]1CC(OC2CCC3(C)C(CCC45CCC(C6=CC(=O)OC6)C(C)(CCC43)C5=O)C2)O[C@H](C)[C@@H]1O[C@@H]1O[C@H](CO[C@@H]2O[C@H](CO)[C@@H](O)[C@H](O)[C@H]2O)[C@@H](O)[C@H](O)[C@H]1O (some centres not stated) | -2.78% | -0.358% | 3.24% | -13.6% | -6.12%
30 | CCCn1c(=O)c2ccc(C(=O)NC(C)C)cc2n2c(=O)n(CC(=O)NC(C)C)nc12 | 3.37% | 5.34% | 2.88% | 4.22% | 0.703%
31 | CCOC(=O)c1csc(Nc2ccc(Cl)cc2)n1 | -25.1% | -23.1% | 8.67% | -29.5% | -9.39%
32 | COc1ccc(C2(O)c3c(ccc4c3OC(C)(CCC=C(C)C)C=C4)NC(=O)C2OC)cc1 (configuration not stated) | -0.135% | -5.39% | -0.181% | -23.1% | -0.856%
33 | CCCn1c(=O)c2ccc(C(=O)NCC(C)C)cc2n2c(=O)n(CC(=O)Nc3ccc(C)c(C)c3)nc12 | 4.31% | 3.52% | 6.88% | -0.576% | 1.56%
34 | O=C(Cn1nc2n(CCc3ccccc3)c(=O)c3ccccc3n2c1=O)c1cccc(Cl)c1 | -5.72% | -6.64% | 8.88% | -13% | -4.33%
35 | COc1ccc(CO[C@H]2COCCN(c3nc4ccccc4s3)C2)cc1 | -5.45% | -1.43% | -7.97% | -18.7% | -4.26%
36 | COc1ccc(C(=O)Nc2cnc3c(c2)CCC3)cc1 | -10.8% | -4.15% | -5.19% | -7.03% | 5.7%
37 | CC(C)Oc1ccc(C(=O)NC(CNC(=O)CN(C)C)Cc2ccc(-c3cn4cccc(C(C)O)c4n3)cc2)cc1Cl (configuration not stated) | 5.05% |  | 3.89% |  | 
38 | CC1CC(=O)[C@]2(O)C(C(=O)OCCc3ccc(O)cc3)=CO[C@@H](O[C@@H]3O[C@H](CO)[C@@H](O)[C@H](O)[C@H]3O)[C@H]12 (some centres not stated) | 7.47% | 7.93% | 10.4% | -7.18% | 3.17%
39 | CCOc1ccccc1NC(=O)CN(C)S(=O)(=O)c1ccc2[nH]c3c(c2c1)CCCC3 | -6.13% | 2.86% | -3.41% | -6.1% | -1.8%
40 | O=C(c1cccnc1)N1CCC2(CC1)CC(N(C(=O)c1ccccc1)C1CC1)CCO2 (configuration not stated) | -1.21% | 1.14% | -0.604% | 0.557% | -3%

Row | Compound | activity change, negative = inhibition [1] | activity change, negative = inhibition [2] | activity change, negative = inhibition [3] | activity change, negative = inhibition [4] | activity change, negative = inhibition [5]
41 | COC(=O)CC(O)CC(O)/C=C/c1c(C)ccc2c1C(OC(C)=O)CC(C)C2 (configuration not stated) | 0% | -0.224% | -0.516% | -14.5% | 1.05%
42 | CC(C)n1c(=O)c2ccc(C(=O)NC3CCCC3)cc2n2c(=O)n(CC(=O)NC(C)(C)C)nc12 | 0.122% | 2.67% | 2.83% | 1.19% | -1.1%
43 | O=c1c2ccccc2n2c(=O)n(Cc3c(F)cccc3Cl)nc2n1CCc1ccccc1 | -5.45% | -5.74% | -0.537% | 0.557% | -5.95%
44 | CCOCCCNC(=O)C1c2c(n(C)c3ccccc23)SCC(=O)N1c1cccc(Cl)c1C (configuration not stated) | 11.3% | 1.3% | 8.39% | 7.87% | 11.7%
45 | CC(C)Cn1c(=O)c2ccc(C(=O)NC(C)C)cc2n2c(=O)n(Cc3cccc(F)c3)nc12 | 1.81% | 0% | 1.32% | -0.33% | 4.85%
46 | C[N+]1(C)C2CC(OC(=O)[C@H](CO)c3ccccc3)CC1C1OC12 (some centres not stated) | -8.17% and -0.483% | 0.089% and 5.98% | -0.516% and 3.27% | -6.06% and -2.76% | 5.58% and 10.7%
47 | O=C(CCc1nnc2n(Cc3ccc(F)cc3)c(=O)c3ccccc3n12)N1CCN(c2ncccn2)CC1 | -13.4% | 0% | 10.7% | -26.8% | 1.16%
48 | N#Cc1cccc(-c2nc(-c3cccnc3)no2)c1 | -8.64% | -6.44% | 4.59% | -22.4% | -1.39%
49 | Cc1ccc(CN2C(=O)c3cc(-c4cccs4)nn3CC2(C)C(=O)NC2CCCCC2)cc1 (configuration not stated) | 2.5% | 0.259% | 8.91% | 12.4% | 6.66%
50 | COc1cccc(C(=O)Cn2nc3n(C(C)C)c(=O)c4ccc(C(=O)NC5CCCC5)cc4n3c2=O)c1 | 0.667% | -0.587% | 7.8% | -1.53% | 1.17%
51 | CCOc1ccccc1CN1C(=O)c2cc3sccc3n2CC1(C)C(=O)NC1CCCCCC1 (configuration not stated) | 2.2% | 4.11% | 10.1% | 1.76% | 0.27%
52 | O=C(NCc1cccc(C(F)(F)F)c1)c1ccc2nnc(-c3cc[nH]c3)n2c1 | -44.3% | -7.31% | -8.08% | -18.9% | -11.9%
53 | COc1cc(C(=O)OC[C@H]2O[C@@H](Oc3ccccc3/C=C/C(=O)O)[C@H](O)[C@@H](O)[C@@H]2O)cc(OC)c1OC | -1.61% | 0.89% | 9.28% | -13.8% | -5%
54 | CN1C(=O)c2cc(C(=O)NCc3cccs3)nn2CC1(C)C(=O)NC1CCCCCC1 (configuration not stated) | 1.78% | 4.82% | -3.76% | 4.03% | 1.48%
55 | CCCN1C(=O)c2c(C(=O)NCCc3ccccc3OC)ncn2CC1(C)C(=O)NC1CCCC1 (configuration not stated) | 1.39% | 0.522% | 5.55% | 3.87% | 8.94%
56 | CCOC(=O)c1cc2n(n1)CC(C)(C(=O)NC1CCCCC1)N(c1cccc(Cl)c1)C2=O (configuration not stated) | -3.12% | 4.61% | -4.98% | 3.3% | -0.904%
57 | CCCn1c(=O)c2ccc(C(=O)NCC(C)C)cc2n2c(SCC(=O)Nc3ccccc3C)nnc12 | 1.25% | 0% | 0.498% | -3.83% | 3.29%
58 | Cc1ccc(-c2ccccc2CN2CCN(C(=O)Nc3ccccc3)CC2)cc1Cl | -6.06% | -10.1% | -4.51% | -13.5% | -10.9%
